# Results published in PubChem BioAssay AID1460 (National Center for Advancing Translational Sciences (NCATS), 2008).
# Values joined by “and” are separate entries in the source; they are usually repeats but may differ in a detail not shown here. Identical values can stand only once. Out of some 270,000 compounds screened, about 5,800 (2.1%) were called active. Inconclusive means that the source gave no clear call. Such entries were picked first, then a sample of the others. Calls follow the shape of the dose curve; as a rule, active = well fitted inhibition curve with a large enough effect; inconclusive = small, poorly fitted or top-dose-only effect; inactive = flat fitted curve, though single readings scatter. Potencies of inconclusive entries are doubtful fits and often do not repeat.
# Molecular target: Microtubule-associated protein tau (Homo sapiens) (UniProt P10636)
# Chain of UniProt P10636 (P10636 whole entry, looked up): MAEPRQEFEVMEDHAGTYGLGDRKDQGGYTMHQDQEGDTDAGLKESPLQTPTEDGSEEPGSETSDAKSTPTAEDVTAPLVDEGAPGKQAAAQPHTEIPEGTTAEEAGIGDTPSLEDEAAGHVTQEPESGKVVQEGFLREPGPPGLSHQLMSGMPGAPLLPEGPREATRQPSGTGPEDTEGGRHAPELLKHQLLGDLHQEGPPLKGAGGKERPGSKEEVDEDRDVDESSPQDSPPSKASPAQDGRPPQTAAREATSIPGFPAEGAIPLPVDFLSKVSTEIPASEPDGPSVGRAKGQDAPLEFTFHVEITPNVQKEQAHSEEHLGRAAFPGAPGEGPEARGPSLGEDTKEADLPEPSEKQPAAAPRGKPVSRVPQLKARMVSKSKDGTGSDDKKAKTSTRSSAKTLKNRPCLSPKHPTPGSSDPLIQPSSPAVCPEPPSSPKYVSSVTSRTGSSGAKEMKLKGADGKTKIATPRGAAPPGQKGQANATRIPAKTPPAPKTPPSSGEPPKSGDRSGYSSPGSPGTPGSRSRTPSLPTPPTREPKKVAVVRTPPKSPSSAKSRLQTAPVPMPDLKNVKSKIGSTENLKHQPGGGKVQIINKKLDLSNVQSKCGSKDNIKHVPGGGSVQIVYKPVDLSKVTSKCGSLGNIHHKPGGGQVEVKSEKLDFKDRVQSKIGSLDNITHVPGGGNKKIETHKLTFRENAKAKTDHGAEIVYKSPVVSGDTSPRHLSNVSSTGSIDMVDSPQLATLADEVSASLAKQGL
# Assay: qHTS for Inhibitors of Tau Fibril Formation, Thioflavin T Binding; also: nearly all actives have a fitted effect of over 55% in size
# Conditions: recombinant tau K18 P301L (four-repeat tau fragment), heparin-induced fibrillization, ThT fluorescence; series mostly up to 57.4 µM; activity, negative = inhibition: at the top concentration
# Outline: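 Recombinant human tau K18 fragment […] carrying P301L, 15 uM unlabeled plus 0.24 uM Alexa 594-labeled, was fibrillized with 20 uM heparin in 100 mM sodium acetate pH 7 for 6 hr at 37 C; 30 uM ThT fluorescence read after 1 hr.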
# % is scaled to controls: 0 for no effect and ±100 for the full control effect; potency is read from the fitted curve at half-maximal effect; tags tell the direction and shape of the fitted curve.
SMILES,Potency,"activity, negative = inhibition"
Cc1ccc(-n2[nH]c(C)c(/C=N/NC(=O)c3cccc([N+](=O)[O-])c3)c2=O)cc1C,"inconclusive: 14.1 µM [inhibitor, partial curve]",–
CCOc1ccc(OCC(=O)Nc2nnc3n2CCS3)cc1,"inconclusive: 20 µM [inhibitor, partial curve]",–
Cc1ccc(NC(=S)Nn2cnnc2)cc1,"inconclusive: 20 µM [inhibitor, single point]",–
O=C(O)Cn1cc(/C=C2\SC(=O)N(c3ccccc3)C2=O)c2ccccc21,"inconclusive: 14.1 µM [inhibitor, single point]",–
OC(CN1CCN(c2ccccc2)CC1)Cn1c2ccccc2c2ccccc21 (configuration not stated),"inconclusive: 11.2 µM [inhibitor, partial curve]",–
CC(C)Cc1nnc(NC(=O)c2ccc([N+](=O)[O-])cc2)s1,"inconclusive: 20 µM [inhibitor, partial curve]",–
O=C(Nc1ccccc1Sc1ccccc1)c1ccccc1,"inconclusive: 11.2 µM [inhibitor, partial curve, poor fit]",–
Cc1oc2cc(O)cc(C)c2c(=O)c1-c1cnn(-c2ccccc2)c1,"inconclusive: 3.98 µM [inhibitor, single point]",–
COc1ccc(C(C)n2c(C)c3c(C)nnc(C)c3c2C)cc1 (configuration not stated),"inconclusive: 15.8 µM [inhibitor, single point]",–
O=C(Nc1nc2ccccc2s1)C1=NN(c2ccccc2)C(=O)CC1,"inconclusive: 39.8 µM [inhibitor, single point]",–
O=c1[nH]c2ccc(Br)cc2c(-c2ccccc2)c1CN1CCOCC1,active: 22.4 µM,–
CO/N=C/c1ccc(N2CCN(C(=O)c3ccc(Cl)cc3Cl)CC2)c([N+](=O)[O-])c1,"inconclusive: 12.6 µM [inhibitor, partial curve]",–
Cc1cc(NC(=O)c2ccccc2F)n(-c2nc3ccccc3[nH]2)n1,–,inactive: 1.63%
Cc1nc(NC(=O)COc2ccccc2)sc1C(=O)Nc1cccc(Cl)c1,"inconclusive: 7.08 µM [inhibitor, partial curve]",–
CCc1nc2c(c(=O)c3ccccc3n2C)c(=O)n1CCc1ccc(OC)cc1,"inconclusive: 39.8 µM [inhibitor, single point]",–
O=S(=O)(c1ccc2c(c1)CCN2)N1CCCCCC1,–,inactive: 1.78%
O=C(CCC(=O)c1cccs1)OCc1nc2ccccc2s1,"inconclusive: 0.794 µM [inhibitor, single point]",–
COc1cccc(CS(=O)(=O)c2nnnn2-c2ccccc2)c1,"inconclusive: 25.1 µM [inhibitor, partial curve]",–
COc1cccc(CN2CCNC(=O)C2CC(=O)NCc2cc(C(C)C)no2)c1 (configuration not stated),–,inactive: -10.3%
CCOC(=O)c1c(C)[nH]c(C)c1S(=O)(=O)NCC(=O)N1CCN(c2cccc(C)c2)C(C)C1 (configuration not stated),–,inactive: -6.7%
CCC(=O)Nc1ccc(NC(=S)NC(=O)/C=C/c2ccccc2)cc1,–,inactive: -17.9%

SMILES,Potency,"activity, negative = inhibition"
Cc1ccsc1C1Nc2ccccc2C(=O)N1O (configuration not stated),–,inactive: -7.77%
COc1ccc(Br)cc1CN(C)CC(=O)Nc1c(Cl)ccc(C)c1Cl,"inconclusive: 22.4 µM [inhibitor, single point]",–
Cc1cc(O)c(C(c2ccccc2)N2CCN(C)CC2)c(=O)n1Cc1ccco1 (configuration not stated),"inconclusive: 12.6 µM [inhibitor, partial curve, poor fit]",–
S=c1[nH]nc(-c2cc(-c3ccccc3)n[nH]2)n1/N=C/C=C/c1ccco1,"inconclusive: 15.8 µM [inhibitor, partial curve]",–
Nc1c(C(=O)Nc2ccccc2F)sc2nc(-c3ccco3)ccc12,"inconclusive: 0.794 µM [inhibitor, full curve]",–
O=C1CN2NC(=S)N(c3ccccc3)C2=CN1c1ccc(Cl)cc1,–,inactive: 3.57%
O=[N+]([O-])c1ccc(O)c(/C=N/Nc2ccc(Cl)nn2)c1,"inconclusive: 3.55 µM [inhibitor, full curve]",–
Cc1ccc2nc(SCC(=O)N(CC(C)C)c3c(N)n(Cc4ccccc4)c(=O)[nH]c3=O)[nH]c2c1,"inconclusive: 44.7 µM [inhibitor, single point]",–
[O-]/C(=C(\C(=S)NCc1ccccc1)[n+]1ccccc1)c1ccc(Cl)cc1,"inconclusive: 17.8 µM [inhibitor, single point]",–
COC(=O)CCC(=O)OC1(C)C(=O)C=C2C=C(C3CC3)N(Cc3ccc(OC)cc3)C=C2C1=O (configuration not stated),"inconclusive: 7.08 µM [inhibitor, partial curve] and inconclusive: 7.94 µM [inhibitor, single point]",–
O=C(NC(=S)Nc1cccc2c(O)cccc12)c1cccc(Br)c1,active: 12.6 µM,–
CCOC(=O)c1ccc(NC(=O)c2csnn2)cc1,"inconclusive: 28.2 µM [inhibitor, partial curve, poor fit]",–
O=C(C1CC1)N1CCN(c2nc3c(Cl)cccc3s2)CC1,"inconclusive: 3.16 µM [inhibitor, partial curve]",–
CO/N=C1\CN(c2nc3c(cc2F)c(=O)c(C(=O)O)cn3C2CC2)CC1CN (configuration not stated),–,inactive: -1.16%
Cc1cc(C)cc(Oc2ccc(NC(=O)C3CC=CCC3C(=O)O)cc2)c1 (configuration not stated),–,inactive: -9.29%
Clc1ccccc1C(c1ccccc1)(c1ccccc1)n1ccnc1,"inconclusive: 20 µM [inhibitor, single point] and inconclusive: 25.1 µM [inhibitor, partial curve] and inconclusive: 15.8 µM [inhibitor, partial curve]",–
Cc1nc2ccccn2c1/C(O)=C1\C(=O)C(=O)N(CCN2CCOCC2)C1c1ccncc1 (configuration not stated),–,inactive: -8.66%
COC(=O)c1c(C)n(-c2ccc(C)cc2)c2ccc(O)cc12,"inconclusive: 25.1 µM [inhibitor, partial curve]",–
CC(C)=NOC[C@@H](C)[C@H](OCc1ccccc1)C(C)C,–,inactive: -8.75% [at 11.5 µM]
COc1ccc(Nc2nnc(SCC(=O)c3cc(C)n(CC4CCCO4)c3C)s2)cc1 (configuration not stated),"inconclusive: 11.2 µM [inhibitor, partial curve]",–
CCOC1=C/C(=C/c2c(N)n3oc(C)cc3nc2=O)C=CC1=O,"inconclusive: 17.8 µM [inhibitor, partial curve]",–
